# Source: the supplement of paper PMC8728848
# This is one part of the list.
# Legend:
# Assay in all cases: glycan array binding signal (z-score within array); higher = stronger binding
# Settings in all cases: glycan notation: IUPAC condensed, linker removed
# [1] = molecular target: Gal3S(b1-4)GlcNAc6S
# Method in brief: (§1)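 The Consortium for Functional Glycomics database supplied 3228 glycan arrays, of which those lacking an available protein sequence were dropped. The binding signal, a within-array Z-score, was averaged across arrays of the same protein sequence and across linkers. Negative scores can be read as non-binding.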
# [2] = molecular target: Gal3S(b1-4)[Fuc(a1-3)]Glc
# Method in brief: as §1
# [3] = molecular target: Gal3S4S(b1-4)GlcNAc
# Method in brief: as §1
# [4] = molecular target: Gal3S6S(b1-4)GlcNAc
# Method in brief: as §1
# [5] = molecular target: Gal3S6S(b1-4)GlcNAc6S
# Method in brief: as §1
# [6] = molecular target: Gal4S(b1-4)GlcNAc
# Method in brief: as §1
# [7] = molecular target: Gal4S6S(b1-4)GlcNAc
# Method in brief: as §1
# [8] = molecular target: Gal6S(b1-4)Glc
# Method in brief: as §1
# [9] = molecular target: Gal6S(b1-4)Glc6S
# Method in brief: as §1
# [10] = molecular target: Gal6S(b1-4)GlcNAc
# Method in brief: as §1
# [11] = molecular target: Gal6S(b1-4)GlcNAc6S
# Method in brief: as §1
# [12] = molecular target: GalNAc(a1-3)Gal
# Method in brief: as §1
# [13] = molecular target: GalNAc(a1-3)GalNAc
# Method in brief: as §1
# [14] = molecular target: GalNAc(b1-3)Gal
# Method in brief: as §1
# [15] = molecular target: GalNAc(b1-3)Gal(a1-4)Gal(b1-4)GlcNAc
# Method in brief: as §1
# [16] = molecular target: GalNAc(b1-3)GalNAc
# Method in brief: as §1
# [17] = molecular target: GalNAc(b1-4)GlcNAc
# Method in brief: as §1
# [18] = molecular target: Glc(a1-4)Glc
# Method in brief: as §1
# [19] = molecular target: Glc(a1-6)Glc(a1-6)Glc
# Method in brief: as §1
# [20] = molecular target: Glc(b1-4)Glc
# Method in brief: as §1
# [21] = molecular target: Glc(b1-6)Glc
# Method in brief: as §1
# [22] = molecular target: GlcA(b1-3)Gal
# Method in brief: as §1
# [23] = molecular target: GlcA(b1-3)GlcNAc
# Method in brief: as §1
# [24] = molecular target: GlcA(b1-6)Gal
# Method in brief: as §1
# [25] = molecular target: GlcNAc(a1-3)Gal(b1-4)GlcNAc
# Method in brief: as §1
# [26] = molecular target: GlcNAc(a1-6)Gal(b1-4)GlcNAc
# Method in brief: as §1
# [27] = molecular target: GlcNAc(b1-2)Gal(b1-3)GalNAc
# Method in brief: as §1
# [28] = molecular target: GlcNAc(b1-2)Man(a1-3)[GlcNAc(b1-2)Man(a1-6)]Man(b1-4)GlcNAc(b1-4)GlcNAc
# Method in brief: as §1
# [29] = molecular target: GlcNAc(b1-3)Gal
# Method in brief: as §1
# [30] = molecular target: GlcNAc(b1-3)Gal(b1-3)GalNAc
# Method in brief: as §1
# [31] = molecular target: GlcNAc(b1-3)Gal(b1-4)Glc
# Method in brief: as §1
# [32] = molecular target: GlcNAc(b1-3)Gal(b1-4)GlcNAc
# Method in brief: as §1
# [33] = molecular target: GlcNAc(b1-3)Gal(b1-4)GlcNAc(b1-3)Gal(b1-4)GlcNAc
# Method in brief: as §1
# [34] = molecular target: GlcNAc(b1-3)GalNAc
# Method in brief: as §1
# [35] = molecular target: GlcNAc(b1-3)Man
# Method in brief: as §1
# [36] = molecular target: GlcNAc(b1-3)[GlcNAc(b1-4)][GlcNAc(b1-6)]GlcNAc
# Method in brief: as §1
# [37] = molecular target: GlcNAc(b1-3)[GlcNAc(b1-6)]Gal(b1-4)GlcNAc
# Method in brief: as §1
binder,measurement,setting,value
"MIC1 (Toxoplasma gondii), O00834 (protein) MGQALFLTVLLPVLFGVGPEAYGEASHSHSPASGRYIQQMLDQRCQEIAAELCQSGLRKMCVPSSRIVARNAVGITHQNTLQWRCFDTASLLESNQENNGVNCVDDCGHTIPCPGGVHRQNSNHATRHEILSKLVEEGVQRFCSPYQASANKYCNDKFPGTIARRSKGFGNNVEVAWRCYEKASLLYSVYAECASNCGTTWYCPGGRRGTSTELDKRHYTEEEGIRQAIGSVDSPCSEVEVCLPKDENPPLCLDESGQISRTGGGPPSQPPEMQQPADRSDERGGGKEQSPGGEAQPDHPTKGGNIDLPEKSTSPEKTPKTEIHGDSTKATLEEGQQLTLTFISTKLDVAVGSCHSLVANFLDGFLKFQTGSNSAFDVVEVEEPAGPAVLTIGLGHKGRLAVVLDYTRLNAALGSAAYVVEDSGCSSSEEVSFQGVGSGATLVVTTLGESPTAVSA",glycan array binding signal (z-score),[1],-0.108
same,glycan array binding signal (z-score),[2],-0.201
same,glycan array binding signal (z-score),[3],-0.146
same,glycan array binding signal (z-score),[4],-0.228
same,glycan array binding signal (z-score),[5],-0.287
same,glycan array binding signal (z-score),[6],-0.229
same,glycan array binding signal (z-score),[7],-0.218
same,glycan array binding signal (z-score),[8],-0.147
same,glycan array binding signal (z-score),[9],-0.132
same,glycan array binding signal (z-score),[10],-0.264
same,glycan array binding signal (z-score),[11],-0.291
same,glycan array binding signal (z-score),[12],-0.009
same,glycan array binding signal (z-score),[13],-0.071
same,glycan array binding signal (z-score),[14],-0.315
same,glycan array binding signal (z-score),[15],-0.301
same,glycan array binding signal (z-score),[16],-0.2
same,glycan array binding signal (z-score),[17],-0.214
same,glycan array binding signal (z-score),[18],-0.118
same,glycan array binding signal (z-score),[19],-0.251
same,glycan array binding signal (z-score),[20],-0.065
same,glycan array binding signal (z-score),[21],-0.336
same,glycan array binding signal (z-score),[22],-0.201
same,glycan array binding signal (z-score),[23],-0.176
same,glycan array binding signal (z-score),[24],-0.304
same,glycan array binding signal (z-score),[25],0.163
same,glycan array binding signal (z-score),[26],-0.27
same,glycan array binding signal (z-score),[27],-0.143
same,glycan array binding signal (z-score),[28],-0.227
same,glycan array binding signal (z-score),[29],-0.169
same,glycan array binding signal (z-score),[30],-0.315
same,glycan array binding signal (z-score),[31],-0.138
same,glycan array binding signal (z-score),[32],-0.195
same,glycan array binding signal (z-score),[33],-0.262
same,glycan array binding signal (z-score),[34],-0.169
same,glycan array binding signal (z-score),[35],-0.15
same,glycan array binding signal (z-score),[36],-0.08
same,glycan array binding signal (z-score),[37],-0.289
